Measured values from publication PMC12136788.
Some of the results follow.

T1: UNK ZnF1-3 (human, UniProt Q9C0B0 31-174)
T1 sequence: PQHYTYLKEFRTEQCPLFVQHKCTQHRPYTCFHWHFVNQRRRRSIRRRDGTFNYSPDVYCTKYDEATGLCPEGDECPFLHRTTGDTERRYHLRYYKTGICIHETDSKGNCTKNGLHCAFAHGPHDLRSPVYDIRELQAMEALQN

B1: chr1:145602572:145602573:-_ENSMUSG00000018199_ENSMUST00000159879|mus_mus|motif|central (ssRNA)
RNA: GGGAGUUCUACAGUCCGACGAUCCUGUUCAAGGCCAGCCUGGUCUACACAGUGAGCUCUAGAAUAGCCAGGACUAUGUCGGUGGAGAGAGACCCUGUCACAAAACAAAACAAAACAAAACAAAAUAACCAUCACACACACAUCCAACAGAGGAUUGAGCAUCA
B2: chr16:44739181:44739182:-_ENSMUSG00000022668_ENSMUST00000162512|mus_hu|motif|central (ssRNA)
RNA: GGGAGUUCUACAGUCCGACGAUCAACAGGUUUUCAUUUUAUGGAUGUGCUCUUGUCAGUUUGUUAAAAUAGGGGAAUCAGCGGGUAGCUGUUCUAAUGAACACCAUAAUUCAAUAACUUACAAACUUUUUUCACCUCAGGCACCAACAGAGGAUUGAGCAUCA
B3: chr5:23655024:23655025:+_ENSMUSG00000028986_ENSMUST00000030841|mus_hu|FALSE|FALSE (ssRNA)
RNA: GGGAGUUCUACAGUCCGACGAUCAUUAUAGCAGUCCAUUCGCUUUAUUGGGAAAAGCUGAGAGCCUCCCAAAAUGUAUACUACAUUGUCCCAAAACACGCAUGCUGCAUCUCUUCGUUUUUCAAAGGGGCAGCGGAUGUCUGUCAACAGAGGAUUGAGCAUCA
B4: 79657428_79657548_2643_3pUTR_ENSMUSG00000089715_ENSMUST00000109627|mouse|control|control (ssRNA)
RNA: GGGAGUUCUACAGUCCGACGAUCCAGUACCACAUCUGCAGUGAAGAUCUGACCUUCAAGAUGACCAUCCCAAGAAGGGCCUGAGGUGGCUCCACGUCCCCCAGCAACCUGGGAUCAGAGUGGCCUGUGGCUUCCACGACAAACCAACAGAGGAUUGAGCAUCA
B5: 50296631_50299613_2368_3pUTR_ENSMUSG00000043531_ENSMUST00000164039|mouse|control|control (ssRNA)
RNA: GGGAGUUCUACAGUCCGACGAUCUCUGUCCCAAGCUGCAGUCUUUUGACAGUGAGGAUGGGUUGAACCAAAAUGCUGGCAGGCAUUGUCCAUUACUAUGUCUCUCAUAGCCAUAGUCACAGUCAAAGUCUGCCUCUGUACAAACAACAGAGGAUUGAGCAUCA
B6: chr6:41757443:41757444:+_ENSG00000214736_ENST00000398881|hu_mus|hu_hu_hu_mus_False|28_78 (ssRNA)
RNA: GGGAGUUCUACAGUCCGACGAUCGAACCGUGCAGAGGCAACAUCUCAGCCGACACUGUGGACUCAAGGGGCAGUGGGGGGGGGUUCAGGCAAGGAGAGGGAGUCAACCCAUCUGAACACUCAGGUAGGAUCUUGUGGUCACAGCAACAGAGGAUUGAGCAUCA
B7: chr1:63100574:63100575:-_ENSG00000116641_ENST00000251157|hu_mus|FALSE|FALSE (ssRNA)
RNA: GGGAGUUCUACAGUCCGACGAUCAGCAGGGGGCACAUGCGGUCGUAACAGUCCCUUCAUCUGCUCUGAAUUAAGGUCGAAAUAAAAAUUCUCGGAAAUCUUUUUCUUCUCCUUGACAUCAUAUAAAGCCAAACUUGCAAAAAUCAACAGAGGAUUGAGCAUCA
B8: chr18:10010065:10010066:-_ENSMUSG00000047879_ENSMUST00000092096|mus_mus|FALSE|FALSE (ssRNA)
RNA: GGGAGUUCUACAGUCCGACGAUCCAGAAUAAUAGGUGGGAUACUAGAAGAAGUUUUAUCCAUGGAAUCAAACAAAUCUCUAAGAGCUGCAGUAAUAUACUGUGCUGAAGCCAUUUCUCCUGAAGCUCUCAACGCACCUGCAUACAACAGAGGAUUGAGCAUCA
B9: chr17:71578653:71578654:+_ENSMUSG00000024052_ENSMUST00000129635|mus_mus|motif|central (ssRNA)
RNA: GGGAGUUCUACAGUCCGACGAUCAGAUCCUCUUGCUGCCUGGGCUCUCUUCUCAUCAUCUGAGCUCACACCCACAUCACCGGCAUCUUCUGCAACAGGGGAAGCUGCCUGCUCCUCCUUCCUAUUGUCCUGUUUGCACUUCUUCAACAGAGGAUUGAGCAUCA
B10: chr12:27888400:27888401:+_ENSG00000061794_ENST00000081029|hu_mus|FALSE|FALSE (ssRNA)
RNA: GGGAGUUCUACAGUCCGACGAUCGGCCUUGCAGUACCGCUCUCCUACAAGCUUAAUGAGUUUUUUCUUGGCAUGAUUGUCUAAAUUCAAACUGGAAAGUUUAACCCUUAACGUUACGGCUCGGGCUUUGGGGUUUCGAAUAGACAACAGAGGAUUGAGCAUCA
B11: chr7:74146866:74146867:+_ENSG00000077809_ENST00000416070|hu_mus|motif|central (ssRNA)
RNA: GGGAGUUCUACAGUCCGACGAUCUUCCUUCGCCAGCAAUAUCCUCUCAAGGCGAGGAAUGCCGUACGUCGACGGCCUUCGGAAAGGAAUCCCUUCAGGAAGCCCUUCUACGUAAAGAUCUUCAACAUGGGACUGGAAAAGAGGCAACAGAGGAUUGAGCAUCA
B12: 88515521_88517607_392_CDS_ENSMUSG00000034111_ENSMUST00000037418|mouse|control|control (ssRNA)
RNA: GGGAGUUCUACAGUCCGACGAUCUUCCAAGUCCGCUGAAAGAACAUCUAUAGCCCCAGUGUGCUCAGACUGGAUCAUAACUGUGUCCUCAGGUCGCUGUGGAGCUUGGUACUUGGCCAUCUCACUGAGAACCUGGGUCUGGCCCAACAGAGGAUUGAGCAUCA
B13: chr11:51414962:51414963:-_ENSMUSG00000020358_ENSMUST00000074669|mus_hu|motif|central (ssRNA)
RNA: GGGAGUUCUACAGUCCGACGAUCGUAUGGCUUGUAGUUAUUCUGAUGGCCACCACGUCGCUGGCUCUUGCCGUAGUUUGUACGGCCCUGACUGUAGUCGUAGCCGGGGCCGUAGCCGUAAUAGCCAUAGGGCGAGUAGUCGUACAACAGAGGAUUGAGCAUCA
B14: chr11:94812113:94812114:+_ENSMUSG00000001506_ENSMUST00000001547|mus_mus|FALSE|FALSE (ssRNA)
RNA: GGGAGUUCUACAGUCCGACGAUCCUUUUCCUUGGGGUUCGGGCUGAUGUACCAGUUCUUCUGAGGCACAGACGGCUGAGUAGGGAACACACAGGUCUGACCUGUCUCCAUGUUGCAGUAGACCUUGAUGGCGUCCAGGUUGCACAACAGAGGAUUGAGCAUCA
B15: 82450353_82451020_3594_CDS_ENSG00000117114_ENST00000319517|human|control|control (ssRNA)
RNA: GGGAGUUCUACAGUCCGACGAUCGCUAUUGAUGUCACCUGAGAUAAAAGAAGAUUCUGAUUGUUUUCUCACAGUAUCAUUCCACAUUCUUCUUAUACGACUCUGUGUGCCAGAGGAAUAGCGAGCACUGGUUCUGGUGGUUGACAACAGAGGAUUGAGCAUCA
B16: chr5:139930402:139930403:-_ENSG00000213523_ENST00000336283|hu_hu|FALSE|FALSE (ssRNA)
RNA: GGGAGUUCUACAGUCCGACGAUCUUCAUUGGCUGCCUCCUCUGAAAACAGACUCCUCUUUUCUGCAAUUAAUCUUUUAACUCCUACCAUCCACUGACUGACCUCAGUCACAUGGUCAACCAUGAGGGAGCGGUGGAUGUCAUCCAACAGAGGAUUGAGCAUCA
B17: 60514221_60524921_784_CDS_ENSMUSG00000047766_ENSMUST00000114034|mouse|control|control (ssRNA)
RNA: GGGAGUUCUACAGUCCGACGAUCAUUUUCAAUUUUGGUAAUCUGAUUUCCAUGAAGGUCCAAGACAUCUAAAUUUUUUAGAUUCUCCAGAUUUGAGAUUUUCUUGAUUCUGUUUUUCCCUAACAGGAGGACACGAAGGGAUUUCAACAGAGGAUUGAGCAUCA
B18: chr2:39052001:39052002:-_ENSMUSG00000026753_ENSMUST00000028087|mus_mus|motif|central (ssRNA)
RNA: GGGAGUUCUACAGUCCGACGAUCCAACUGGUAUCAAAUCAACACAUCAAUGCUACAAGUAUUAAAUGUUUUUCUAAUACGGUAGAAAUAAAAACAUUAAUAUGGCAGUUAUGUUCUUUAGGCACAAUUUAGUGAUUUUUUUAACAACAGAGGAUUGAGCAUCA
B19: 58001293_58001413_769_CDS_ENSG00000255529_ENST00000299638|human|control|control (ssRNA)
RNA: GGGAGUUCUACAGUCCGACGAUCACCUUGGUCCGCAAUGGUGAUCCUCUGUAACCUGUCAAUAAACAGGUUGUCAAAGCUGCUGGAAGUAUCUUCCGCUUGACUUGAAACACGAUGCCGCGGGUGAUGCUCACUAGCUUCAGACAACAGAGGAUUGAGCAUCA
B20: chr1:93831146:93831147:+_ENSG00000117505_ENST00000370272|hu_hu|FALSE|FALSE (ssRNA)
RNA: GGGAGUUCUACAGUCCGACGAUCUAACAGAGGUUCAGUUUCACAGCCUUUCCCUCAAGUGUCUUAUCCUAAAAGUAAAACCUAGAUGAUCUAAGGUGGUGGUUUUCAACAGGGUGCAAUUUUGCCUCCUAUACUCGCAACACCCAACAGAGGAUUGAGCAUCA
B21: 10523219_10523560_686_CDS_ENSG00000160049_ENST00000377038|human|control|control (ssRNA)
RNA: GGGAGUUCUACAGUCCGACGAUCACCCGUGUCUACUGCAUCCACCUCCUCACCAAAGGCAGCUUUGGACUCUUCCUGCUUUGACAAGAGGCUGCCCUCUUUCUCCAAAGCCUGGAGGUACAGCUGCAGGAGCUGCUUGGACUGCAACAGAGGAUUGAGCAUCA
B22: chr2:238002776:238002777:+_ENSG00000198612_ENST00000392008|hu_hu|motif|central (ssRNA)
RNA: GGGAGUUCUACAGUCCGACGAUCGAUUGAAGUAUACGCUUGAGAGACCAGGGCAAAGGCGCGUCUCCUUGUUGCAUCUCGGAGUGCUUCCAUAAUUGGCUGGACCGUCUCAGACCACUGGUGAGCGUUGAUGGUUGUAUAGAUCAACAGAGGAUUGAGCAUCA

Target: T1, UNK ZnF1-3
Experiment: nsRBNS (natural sequence RNA bind-n-seq); RBNS binding buffer (assumed for nsRBNS): 25 mM Tris pH 7.5, 150 mM KCl, 3 mM MgCl2, 0.01% Triton X-100, 500 ug/ml BSA, 20 U/ml SUPERase-In, 4 C; UNK is unkempt and MSI1 is Musashi-1; names of the RNAs are library labels; protein concentration not given here; high values mean tight binding

Binder | binding signal
B1 | 1.84 enrichment R
B2 | 1.4 enrichment R
B3 | 0.536 enrichment R
B4 | 1.19 enrichment R
B5 | 0.839 enrichment R
B6 | 2.27 enrichment R
B7 | 1.2 enrichment R
B8 | 1.28 enrichment R
B9 | 0.873 enrichment R
B10 | 0.803 enrichment R
B11 | 0.638 enrichment R
B12 | 0.814 enrichment R
B13 | 0.43 enrichment R
B14 | 0.823 enrichment R
B15 | 1.67 enrichment R
B16 | 0.679 enrichment R
B17 | 0.663 enrichment R
B18 | 0.527 enrichment R
B19 | 0.483 enrichment R
B20 | 0.846 enrichment R
B21 | 0.578 enrichment R
B22 | 1.1 enrichment R
